# Screen size: about 410,000 compounds; about 6,400 (1.6%) were called active. The shares of active, inactive and inconclusive entries below differ from those in the screen. The call rests on the fitted dose curve; in most records, active means well fitted inhibition curve with a large enough effect; inconclusive means small, poorly fitted or top-dose-only effect; inactive means no such curve, though single readings can be large or run the other way. No potency is given beside an inconclusive call; the fits are too rough.
# Biological target: Glucagon-like peptide 1 receptor (Homo sapiens) (UniProt P43220)
# Assay: qHTS of GLP-1 Receptor Inverse Agonists (Inhibition Mode); further: nearly all actives have a fitted effect of over 55% in size
# Conditions: HEK293 GLP-1R CRE-luciferase, luminescence, 24 h, GLP-1R form is constitutively active; series mostly up to 38.3 µM
# Method in brief: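 Inverse agonism was detected as reduced cAMP-driven luciferase luminescence after 24 h compound treatment. The cells were HEK293 clones expressing constitutively active human GLP-1R with the reporter. Reporter-only and GPR119 cell lines served as counterscreen controls.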
# Potency means the concentration at half of the fitted maximal effect; tags describe the fitted curve by direction and shape.
# Sequence of UniProt P43220 (P43220 whole entry, looked up): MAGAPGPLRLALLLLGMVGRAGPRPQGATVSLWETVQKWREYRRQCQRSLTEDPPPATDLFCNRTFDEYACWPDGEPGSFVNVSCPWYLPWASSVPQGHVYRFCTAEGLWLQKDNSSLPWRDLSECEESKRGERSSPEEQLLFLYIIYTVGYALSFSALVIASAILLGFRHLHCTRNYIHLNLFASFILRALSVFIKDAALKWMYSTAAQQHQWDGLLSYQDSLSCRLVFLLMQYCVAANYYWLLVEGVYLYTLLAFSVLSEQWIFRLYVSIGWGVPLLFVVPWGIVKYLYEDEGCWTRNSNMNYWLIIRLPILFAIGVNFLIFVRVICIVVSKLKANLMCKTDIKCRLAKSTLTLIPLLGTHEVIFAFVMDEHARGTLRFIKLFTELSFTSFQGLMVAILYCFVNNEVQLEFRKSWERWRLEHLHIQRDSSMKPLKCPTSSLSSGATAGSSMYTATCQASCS
row,SMILES,Potency
1,COc1cccc(C(=O)N2c3ccc(C)cc3C(C)(c3ccccc3)CC2(C)C)c1 (stereo unspecified),"inconclusive [inhibitor, single point]"
2,CCc1ccccc1OCC(=O)Nc1ccc(F)c(S(=O)(=O)N2CCOCC2)c1,"inconclusive [inhibitor, partial curve, poor fit]"
3,C[C@@H]1CN([C@@H](C)CO)C(=O)c2cc(NS(=O)(=O)c3cccs3)ccc2O[C@H]1CN(C)Cc1ccc(C(F)(F)F)cc1,"inconclusive [inhibitor, partial curve, poor fit]"
4,CCOCCCNC(=O)c1cc(Sc2cccc(Cl)c2)nc2ccccc12,"inconclusive [inhibitor, single point]"
5,Cc1ccc(C)c(OCC(O)CN2CCC(C)CC2)c1C (stereo unspecified),"inconclusive [inhibitor, single point]"
6,Cc1ccc(/C=N/NC(=O)C2CC(=O)N(c3ccccc3)C2)s1 (stereo unspecified),"inconclusive [inhibitor, single point]"
7,Cc1cccc(NC(=O)c2ncn3c2C(=O)N[C@@H](C)C3)c1,inactive
8,O=C(Cn1c(=O)oc2cc(S(=O)(=O)N3CCCC3)ccc21)N1CCc2ccccc2C1,"inconclusive [inhibitor, full curve]"
9,COc1ccc(-c2cn3nc(N4CCCC(C(=O)Nc5cccc(OC)c5)C4)sc3n2)cc1 (stereo unspecified),"inconclusive [inhibitor, single point]"
10,C=CCn1cccc(C(=O)Nc2ccc(SC)cc2)c1=O,"inconclusive [inhibitor, single point]"
11,COc1cc2c(cc1OC)n(CC(=O)c1cccc(Cl)c1)c(=O)n1nc(CCn3nc(C)cc3C)nc21,inactive
12,Cn1c(Cn2c(=O)sc3ccccc32)nnc1SCC(=O)Nc1ccccc1F,inactive
13,CCCNC(=S)N1CCC(NC(=O)c2ccc(C)cc2)CC1,"inconclusive [inhibitor, partial curve, poor fit]"
14,CN1CCN(c2nc(-c3cccc([N+](=O)[O-])c3)nc3ccccc23)CC1,"inconclusive [inhibitor, single point]"
15,Cc1ccc(N(C(=O)CNC(=O)c2cccs2)C(C(=O)NC2CCCC2)c2ccncc2)cc1 (stereo unspecified),inactive
16,Cc1ccc(Nc2sc(C(=O)c3ccccc3)c(N)c2C(=O)Nc2ccc(Cl)cc2)cc1,"inconclusive [inhibitor, partial curve, poor fit]"
17,CN(/C=C/C(=C/C=[N+](C)c1ccccc1)OCCCS(=O)(=O)[O-])c1ccccc1,inactive
18,CC(C)CC(=O)Nc1ccccc1Oc1ccccc1,"inconclusive [inhibitor, single point]"
19,CCn1nnc2cc(C(=O)Nc3ccc(C(=O)OC(C)C)cc3)ccc21,"inconclusive [inhibitor, partial curve, poor fit]"
20,COc1ccc(CC(N)c2csc(NC(=O)Nc3ccccc3Cc3ccccc3)n2)cc1 (stereo unspecified),"inconclusive [inhibitor, single point]"
21,O=C(CSCc1ccccc1)N1CCN(c2cccc(C(F)(F)F)c2)CC1,"inconclusive [inhibitor, single point]"

row,SMILES,Potency
1,CCCc1ncc(C(O)c2cccc3ccccc23)n1C (stereo unspecified),"inconclusive [inhibitor, partial curve, poor fit]"
2,CN(C)c1ccc(NC(=O)Cc2ccccc2)c2ccccc12,"inconclusive [inhibitor, single point]"
3,CCN1CCN(c2ccc(S(=O)(=O)N3CCCCC3)cc2NC(=O)COc2ccc(F)cc2Cl)CC1,"inconclusive [inhibitor, partial curve, poor fit]"
4,Cc1ccc(NC(=O)Cn2ncc3c4ccccc4n(Cc4ccccc4)c3c2=O)cc1Cl,inactive
5,Cc1ccc(C)c(N2CCN(C(=O)c3csc4ccccc34)CC2)c1,"inconclusive [inhibitor, single point]"
6,CC[C@H](C)[C@H](NC(=O)OCc1ccccc1)C(=O)OCC(=O)N1CCN(c2ccc(OC)cc2)CC1,"inconclusive [inhibitor, partial curve, poor fit]"
7,COc1ccc(OC(C)C(=O)N(C)Cc2nc(-c3ccc(C)cc3)no2)cc1 (stereo unspecified),"inconclusive [inhibitor, single point]"
8,O=C(c1cn(-c2ccccc2)nc1-c1ccccc1)N1CCN(c2ccccn2)CC1,"inconclusive [inhibitor, single point]"
9,O=C(NN1C(=O)NC2(CCCCC2)C1=O)c1ccc(-c2ccc(Cl)cc2)o1,"inconclusive [inhibitor, full curve]"
10,Cc1ccccc1NC(=O)Nc1nnc([C@@H]2C[C@H](O)[C@@H](CO)O2)s1,inactive
11,Cc1ccc(-c2csc3ncnc(SCC(N)=O)c23)cc1,inactive
12,O=C(Nc1nc(-c2ccccn2)cs1)c1cccc(S(=O)(=O)N2CCOCC2)c1,"inconclusive [inhibitor, partial curve, poor fit]"
13,CCOc1ccc(/C=N/Nc2nc(C)cs2)c(O)c1,active: 3.98 µM
14,CCc1nc2c(OCc3ccc(F)c(F)c3)cccn2c1N(C)C(=O)C1CC1,inactive
15,CCOc1ccc(NC(=O)c2ccc3c(c2)c(C)c(C)n3Cc2ccc(F)cc2)cc1,"inconclusive [inhibitor, full curve, poor fit]"
16,Cc1cccn2c(=O)c3cc(C#N)c(=O)n(Cc4cccnc4)c3nc12,inactive
17,Cc1ccc2c(c1)C1(SCCS1)C(=O)N2,"inconclusive [inhibitor, single point]"
18,COc1ccccc1NS(=O)(=O)c1cc(NC(=O)c2ccc(NC(C)=O)cc2)ccc1N1CCOCC1,inactive
19,CCc1nc(SCc2cc(=O)c3cc(F)ccc3[nH]2)n[nH]1,inactive
20,CCN(CC)CC(C)(C)C(=O)/C=C/c1ccc(/C=C/C(=O)C(C)(C)CN(CC)CC)cc1,"inconclusive [inhibitor, full curve, poor fit]"
